Laboratory results: publication PMC4336329 (PLoS ONE, 2015)
Screen size: about 310,000 compounds; about 14,000 (4.5%) showed an effect of 50% or more. Effects have a minus sign here. The list shows a part of the results. Where a SMILES comes first, the peptide text is derived from it. [ ]: non-standard residue; d: D form. ξ: configuration not given here. ξF = NC(Cc1ccccc1)C(=O)O

molecular target: human ether-à-go-go-related gene (hERG) potassium channel (human, UniProt Q12809); assay: primary screen, population patch clamp on CHO cells stably expressing hERG
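Also: peak tail current of the secondary pulse compared with the same well before compound.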

Sequence of human ether-à-go-go-related gene (hERG) potassium channel (Q12809 whole entry, looked up): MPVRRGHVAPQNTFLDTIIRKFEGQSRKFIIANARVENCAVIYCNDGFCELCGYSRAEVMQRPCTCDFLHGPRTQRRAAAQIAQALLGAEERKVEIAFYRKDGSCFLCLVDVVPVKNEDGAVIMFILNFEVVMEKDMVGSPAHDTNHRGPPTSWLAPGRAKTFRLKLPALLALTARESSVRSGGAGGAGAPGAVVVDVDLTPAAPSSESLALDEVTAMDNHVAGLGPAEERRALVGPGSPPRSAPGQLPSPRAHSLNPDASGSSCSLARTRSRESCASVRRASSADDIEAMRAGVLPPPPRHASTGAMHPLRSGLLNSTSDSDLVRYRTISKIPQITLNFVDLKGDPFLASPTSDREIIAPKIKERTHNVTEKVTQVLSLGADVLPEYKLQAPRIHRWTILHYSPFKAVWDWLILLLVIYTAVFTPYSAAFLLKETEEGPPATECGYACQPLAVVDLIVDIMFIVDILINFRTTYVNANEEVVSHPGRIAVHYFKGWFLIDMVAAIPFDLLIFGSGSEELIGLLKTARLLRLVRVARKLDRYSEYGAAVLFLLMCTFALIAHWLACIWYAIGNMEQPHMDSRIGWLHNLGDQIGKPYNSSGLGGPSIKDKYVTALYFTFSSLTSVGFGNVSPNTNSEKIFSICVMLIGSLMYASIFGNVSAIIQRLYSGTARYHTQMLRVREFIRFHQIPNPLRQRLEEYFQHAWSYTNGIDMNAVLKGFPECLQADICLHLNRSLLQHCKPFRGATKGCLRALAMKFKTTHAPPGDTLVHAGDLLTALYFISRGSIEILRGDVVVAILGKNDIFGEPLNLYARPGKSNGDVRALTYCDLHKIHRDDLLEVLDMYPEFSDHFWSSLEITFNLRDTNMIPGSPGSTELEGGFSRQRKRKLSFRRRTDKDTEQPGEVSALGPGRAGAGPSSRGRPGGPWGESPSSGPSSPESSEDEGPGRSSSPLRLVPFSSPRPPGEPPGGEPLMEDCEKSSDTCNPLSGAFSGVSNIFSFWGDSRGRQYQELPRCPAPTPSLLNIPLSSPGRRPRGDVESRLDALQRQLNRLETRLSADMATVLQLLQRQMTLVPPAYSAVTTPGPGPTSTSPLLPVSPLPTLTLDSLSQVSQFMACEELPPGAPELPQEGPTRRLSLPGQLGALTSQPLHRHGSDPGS

SMILES	hERG current change (%, negative = inhibition) at 10uM [%]
CC(C)Cn1c(N)cc(=O)n(C)c1=O	18.2
CCOC(=O)N1CCN(S(=O)(=O)c2ccc(C(=O)Nc3nnc(CSC)o3)cc2)CC1	-12.7
O=c1cc(C(F)(F)F)nc(-c2ccccc2OC(F)(F)F)[nH]1	4.02
COc1cccc(NC(=O)C(C)Oc2ccccc2)c1 (stereo not drawn)	7.32
COc1cc(S(=O)(=O)NCCN2CCOCC2)c(OC)cc1Cl	6.08
CCOC(=O)C(Cc1ccccc1)NC(=O)CNC(C)=O (stereo not drawn) (Ac-Gly-[ξF]-OEt)	-27.8
Cn1cnnc1SCC(=O)Nc1ccccc1	9.96
NNc1nc(-c2ccccc2)c2cc(Br)ccc2n1	0.341
CC(=O)c1ccc(-c2cccs2)s1	17.7
COc1cccc(OC)c1OCCN1CCN(C(c2ccccc2)c2ccccc2)CC1	-72.7
Cl.O=C(C(c1ccccc1)N1CCOCC1)N1CCOCC1 (stereo not drawn)	-4.56
Cc1nc(CCNC(=O)c2cc(COc3ccc(F)cc3Cl)on2)sc1C	-22.4
COc1ccc(CCn2c(SCC(=O)Nc3cc(C)on3)nc3ccsc3c2=O)cc1OC	1.5
Cc1nn(C)c(Cl)c1CN1CCN(C2CCCCC2)C(CCO)C1 (stereo not drawn)	2.86
COc1ccc(-n2cc(-c3ccccc3)c3c(NCCCN4CCOCC4)ncnc32)cc1	-65
COc1ccc2c(c1)CCc1c(C(=O)Nc3ccc(OC)c(OC)c3)noc1-2	-1.11
C=C1[C@@H](OC(C)=O)CC[C@]2(C)[C@@H]1C[C@@H]1C[C@H](OC(C)=O)C(C)=C([C@@H](OC(C)=O)[C@@H]2OC(C)=O)C1(C)C	-27.2
Cn1nccc1C(=O)Oc1ccc(/C=N/NC(=O)c2ccccc2O)cc1	15.5
COc1ccc(NC(=O)C(=O)NNC(=O)COc2ccc(Cl)cc2)c(OC)c1	10.5

SMILES	hERG current change (%, negative = inhibition) at 10uM [%]
COc1ccc(CNC(=O)c2cc(C(=O)C3CC3)c[nH]2)cc1	10.2
O=C(CN(Cc1ccco1)C(=O)Cn1nnc(-c2cccs2)n1)NCC1CCCO1 (stereo not drawn)	6.63
c1ccc(C2=Nn3c(nnc3-c3ccco3)SC2)cc1	-25.9
CC(C)=C1C2C=CC1C(C(=O)Nc1cccc(C)c1)C2C(=O)O (stereo not drawn)	7.56
O=C(N/N=C/c1cccc(OC(=O)c2ccc([N+](=O)[O-])cc2)c1)c1cccnc1	1.99
Cc1cc(C)c(NC(=O)CS(=O)CC(=O)Nc2ccc(F)cc2F)c(C)c1 (stereo not drawn)	12.1
NS(=O)(=O)c1ccc(CCNC(=O)CCCn2c(=O)[nH]c3ccc(Br)cc3c2=O)cc1	15.2
Cc1cc(/C=N/NC(=O)C(=O)N2CCCC2)c(C)n1-c1cccc(Br)c1	-6.65
COc1ccc(NC(=O)COC(=O)CCCOc2ccc(Cl)cc2Cl)cc1	4.42
Cc1ccc(NC(=O)C(=O)NNC(=O)c2cccs2)cc1	13.3
Cc1cc(C)n(-c2nc3ccccc3[nH]c2=O)n1	23
O=C(NCCO)c1nc(NCCO)c2ccccc2n1	10.3
Cc1ccc(N(C(=O)CCC(=O)Nc2cc(C)on2)C(C(=O)NC2CCCC2)c2ccccc2)cc1 (stereo not drawn)	10.1
C/C(Cn1cnc([N+](=O)[O-])n1)=N\NC(=O)c1ccccc1O	8.06
CCCCNC(=O)Nc1nc2ccc(CC)cc2s1	21.2
CC(C)C(=O)NC(c1cccs1)c1cc([N+](=O)[O-])c2cccnc2c1O (stereo not drawn)	31.7
Cc1noc(C)c1CSCC(=O)Nc1cc(C(F)(F)F)ccc1N1CCCCC1	-17
COc1ccc(C(=O)NC2CCN(S(=O)(=O)Cc3ccccc3)CC2)c(OC)c1	4.71
O=C(O)/C=C/C(=O)Nc1ccc2c(c1)C(=O)c1ccccc1C2=O	-1.32

SMILES	hERG current change (%, negative = inhibition) at 10uM [%]
C=CCn1c2ccccc2c2nnc(SCCN3CCCCC3)nc21	-46.4
CCC1C2Cn3c(nc4ccccc43)C1N(C)O2 (stereo not drawn)	3.25
CCCCCC(=O)NN=C1CCN(Cc2ccccc2)CC1	-17.2
C/C(Cc1ccccc1)=N\NC(=O)CNC(=O)Cc1ccc(Cl)cc1	-4.76
CC(C)CCNC(=O)NC(=O)CSc1nnc(-c2ccccc2Br)o1	-5.73
COc1ccccc1OCC(O)CN1CCN(C(=O)c2ccccc2)CC1.Cl (stereo not drawn)	1.39
COc1cc2c(cc1OC)C(c1cccc([N+](=O)[O-])c1)NC(=O)C2 (stereo not drawn)	3.25
Clc1cccc(CSc2nnc(-c3cccnc3)n2Cc2ccco2)c1	-74.3
CSc1nc(C(=O)N2CCCC(C(=O)c3ccc(Cl)cc3)C2)cs1 (stereo not drawn)	-18.1
CN(C(=O)COc1cccc(C#N)c1)C1CCS(=O)(=O)C1 (stereo not drawn)	4.86
CCOC(=O)C1CCCN(C(=S)Nc2ccc(Nc3ccccc3)cc2)C1 (stereo not drawn)	-8.62
CCc1ccc(C(=O)/C=C/NCc2ccc(F)cc2)cc1	-4.74
C[C@H](N)C(=O)N1CCC(C(=O)N[C@@H](Cc2ccccc2)C(=O)Nc2ccc(F)cc2)CC1	-5.88
CSCC(=O)NS(=O)(=O)c1ccc(C)cc1	8.24
O=C(CN1CCC(N2CCCCC2)CC1)N1CCCc2ccccc21.O=C(O)C(=O)O	20.7
Cc1cc(-c2ccco2)n(CC(=O)NCCCc2ccccc2)n1	4.73
O=C1CCCC(=O)N1c1ccc(F)cc1	10.2
CCNC(=S)NNC(=O)Cn1c(=O)c2c(ncn2CCOC)n(Cc2ccccc2)c1=O	15.3
CCCc1nnc(NC(=O)C2CCN(C(=O)C3CC(=O)N(c4ccc(C)cc4)C3)CC2)s1 (stereo not drawn)	-5.5
